In PubChem BioAssay AID1159614 (National Center for Advancing Translational Sciences (NCATS), 2016):
About 65 (0.1%) of roughly 45,000 compounds were called active. Calls come from the whole dose curve; as a rule, active = well fitted activation curve with a large enough effect; inconclusive = small, poorly fitted or top-dose-only effect; inactive = no such curve, though single readings can be large or run the other way. The list shows a part of the results.

Biological target: Galactocerebrosidase (Homo sapiens) (UniProt P54803)
UniProt P54803, sequence (P54803 whole entry, looked up): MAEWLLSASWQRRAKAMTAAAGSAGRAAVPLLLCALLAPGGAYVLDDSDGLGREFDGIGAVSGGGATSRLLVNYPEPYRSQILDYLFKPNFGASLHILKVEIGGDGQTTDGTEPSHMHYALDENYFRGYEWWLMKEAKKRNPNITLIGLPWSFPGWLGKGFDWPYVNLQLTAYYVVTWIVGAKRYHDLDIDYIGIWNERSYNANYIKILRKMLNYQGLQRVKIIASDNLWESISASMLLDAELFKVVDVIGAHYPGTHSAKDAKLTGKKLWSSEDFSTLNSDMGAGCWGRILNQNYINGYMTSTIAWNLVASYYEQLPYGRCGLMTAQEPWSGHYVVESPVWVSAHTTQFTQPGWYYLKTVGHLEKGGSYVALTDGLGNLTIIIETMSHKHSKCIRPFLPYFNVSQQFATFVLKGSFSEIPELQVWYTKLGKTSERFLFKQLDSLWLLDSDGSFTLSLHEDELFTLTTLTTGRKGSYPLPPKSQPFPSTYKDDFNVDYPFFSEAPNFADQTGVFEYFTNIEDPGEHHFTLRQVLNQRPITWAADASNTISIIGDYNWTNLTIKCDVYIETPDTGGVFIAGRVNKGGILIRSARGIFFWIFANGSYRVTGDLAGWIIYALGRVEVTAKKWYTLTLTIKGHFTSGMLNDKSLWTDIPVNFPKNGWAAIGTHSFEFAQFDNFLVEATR
Assay: A Novel Cell-Based Assay to Identify Small Molecules for B -Galactocerebrosidase; note: 0% is about no effect; nearly all actives have a fitted effect of over 65% in size
Conditions: 145M-Twi-hGALC-G270D cells (Twitcher mouse brain line with human GALC G270D), HMU-beta-Gal fluorescence, 48 h; series mostly up to 57.5 µM; activation: at the top concentration
From the text: Lysosomal storage diseases (LSDs) are caused by genetic mutations in genes encoding proteins important for normal lysosomal function. Globoid cell leukodystrophy (GLD), mostly known as Krabbe disease, is a prototype of the neurological LSDs caused by deficiency of beta-galactocerebrosidase (GALC). In brain specimens of GLD patients, psychosine levels are substantially elevated. At elevated concentrations, psychosine becomes cytotoxic to neuronal cells, particularly to oligodendrocytes (OLG), neural cells responsible for myelin formation. Therefore, the biochemical disturbances in GLD are manifested by different degrees of brain demyelination resulting in a broad spectrum of neurological manifestations. Most of the FDA-approved therapies are based on enzyme replacement therapeutic (ERT) agents, which treat non-neurological symptoms of Gaucher disease, Fabry disease, few mucopolysaccharidoses and Pompe disease. Unfortunately, in GLD, a primarily neurological LSD, ERT agents, as large molecular weight molecules unable to cross the blood-brain barrier, which makes this an inefficacious therapeutic approach. In GLD, increasing the residual GALC activity just above the critical threshold (~10% of wild type enzymatic activity), the cytotoxic levels of psychosine will be reduced, avoiding the OLGs apoptosis and the subsequent demyelination process. This will translate in disease stabilization and amelioration of GLD patient symptoms.
A cell-based assay in 1,536-well plate format was developed to implement a quantitative high-throughput screening (qHTS) assay using GLD-disease relevant cells to identify small molecules that produce enhancements of the residual enzymatic activity levels of mutants GALC found and prevalent in GLD patients. Compounds that are active may therefore have some therapeutic application for GLD. After the treatment of live cells for a determined period, using a fluorescent GALC specific substrate, the mutant residual GALC activity is measured. This cell-based qTHS assay was used to screen part of the MLPCN library for small molecule able to increase the mutant GALC enzymatic activity. In this assay, increased fluorescent signal corresponds to enhanced levels of mutant GALC residual enzymatic activity. Activation is the desired outcome for this assay.
NIH Chemical Genomics Center [NCGC]
NIH Molecular Libraries Probe Centers Network [MLPCN]
Assay Submitter (PI): Gustavo Maegawa MD,PhD, University of Florida, Gainesville, FL
2)#Two cell lines were established for the assay: 145M-Twi-hGALC-G270D (brain-derived Twitcher cell line stably expressing human GALC-G270D) and 145M-Twi-hGALC-WT (same 145M-Twi stably expressing human GALC wild type). The Twitcher is the murine C57B/6 model for GLD with naturally occurring homozygous nonsense GALC mutation. The 145M-Twi cell line was established at Maegawa lab (Ribbens J et al 2014).
a.#Media: DMEM/F12 (1:1) with 10% fetal bovine-serum (FBS) with penicillin/streptomycin (PS-1X - 100 I.U./mL of penicillin+100 ug/mL of streptomycin).
b.#The 6-Hexadecanoylamino-4-methylumbelliferyl-b-D-galactoside (HMU-B-gal) substrate was prepared as per Wiederschain et al 1992. Using 20-mL borosilicate tubes, 2.20 mg of HMU-b-Gal was added in each tube to prepare substrate-film with a final air-nitrogen stream evaporation to remove all diluent solvents.
c.#The HMUb-Gal substrate buffer consists of 0.2 M Na2HPO4 (sodium phosphate dibasic)/ 0.1 M Citric Acid with the pH adjusted to 5.2 using HCl. Sodium Azide at 0.02% and Sodium Taurocholate (NaTC) at 1 mg/mL were added to this substrate buffer.
d.#The HMU-b-Gal stopping buffer consist of 0.5 M NaHCO3 (sodium bicarbonate) /0.5 M Na2CO3 (sodium carbonate). […] Triton X-100 at 0.25% was added.
4)#Preparation of HMU-b-Gal substrate tubes
Adding 18.6 mL of the HMUb-Gal substrate buffer to each 20-mL tube (2.20 mg of HMU-b-Gal) will reach a concentration of 0.2 mM. Vortex well the tube until the solution is fully homogenized (clear cloudy solution). […]

| SMILES | activation |
| --- | --- |
| Cc1ccc(-c2cn(-c3ccc(Cl)cc3)c(S(=O)(=O)CC(=O)Nc3ccccc3)n2)cc1 | inactive: -11.3% |
| COc1cccc2c1C(=O)c1c(O)c3c(c(O)c1C2=O)C[C@@](O)(C(=O)CO)C[C@@H]3O[C@H]1C[C@H](N)[C@H](O[C@@H]2CCCCO2)[C@H](C)O1 | inactive: -22% |
| COc1ccc(NC(=O)CC2C(=O)N(c3cccc(OC)c3)C(=O)N2Cc2ccc3c(c2)OCO3)cc1 (stereo not drawn) | inactive: -21.4% |
| COc1ccc(S(=O)(=O)c2nnn(-c3ccc(C)c(Cl)c3)c2C)cc1 | inactive: -34.5% |
| Cc1cc(C)cc(NC(=O)C2CCN(S(=O)(=O)c3cccc(-c4noc(C)n4)c3)CC2)c1 | inactive: -13.5% |
| O=C(CC1N=C2c3ccccc3N=C(SCC(=O)Nc3ccccc3F)N2C1=O)NCc1cccs1 (stereo not drawn) | inactive: -17.1% |
| Cc1cccc(NC(=O)C(=O)NCCc2csc(-c3ccc(C(F)(F)F)cc3)n2)c1C | inactive: -4.52% |
| Fc1ccc(Br)cc1C1C=C(c2ccc(Br)cc2)Nc2nnnn21 (stereo not drawn) | inactive: -8.38% |
| CC1=Nc2cc(C(=O)NC(C)C)ccc2Sc2ccc(C)cc21 | inactive: -27.6% |
| Cc1ccc(CNC(=O)CCCN2C(=O)COc3ccc(C)cc32)cc1 | inactive: -8.43% |
| Cc1ccc(NC(=O)c2c(NC(=O)c3ccccc3)sc3c2CCC3)cc1 | inactive: -10.4% |
| Cc1ccc2sc(N(Cc3cccnc3)C(=O)C3COc4ccccc4O3)nc2c1C (stereo not drawn) | inactive: -16% |
| CC1CCc2c(sc(NC(=O)c3cc(-c4ccc(F)cc4)on3)c2C(N)=O)C1 (stereo not drawn) | inactive: 0.111% |
| CC(C)Cn1c(=O)c2sccc2n2c(CCCC(=O)NC3CCCCC3)nnc12 | inactive: 6.92% |
| COc1cccc(CNC(=O)CCCn2nc(C)c3c(C)n(-c4ccc(C)cc4)nc3c2=O)c1OC | inactive: 1.53% |
| CCN(CC)CCNC(=O)c1ccc(-n2c(-c3ccccc3)cc3c2CCCC3)cc1 | inactive: -5.03% |
| CCc1ccc(CN(C(=O)c2cc(=O)c3ccc(C)cc3o2)C2CCS(=O)(=O)C2)cc1 (stereo not drawn) | inactive: -6.77% |
| Cc1cc(=O)n2[nH]c(NC(=O)c3cccc(Cl)c3)nc2n1 | inactive: -15.6% |
| COc1ccc(CNC(=O)Cn2ncc3c(=O)oc4ccc(C)cc4c32)c(OC)c1 | inactive: -13.3% |
| COc1ccc(-c2nc(CN3CCC(C(=O)NCc4ccc(F)cc4)CC3)c(C)o2)cc1OC | inactive: -7.87% |
| CCCC(=O)Nc1nnc(SCc2cc(=O)n3cccc(C)c3n2)s1 | inactive: -7.26% |
| CC#C[C@]1(O)CC[C@H]2[C@@H]3CCC4=CC(=O)CCC4=C3[C@@H](c3ccc(N(C)C)cc3)C[C@@]21C | inactive: -42% |
| Cc1c(C(=O)NCc2ccc(OC(C)C)cc2)sc2ncnc(N(C)C3CCCCC3)c12 | inactive: -2.66% |
| CC1=Nc2cc(C(=O)N3CCCCC3)ccc2Sc2ccc(C)cc21 | inactive: -6.2% |

| SMILES | activation |
| --- | --- |
| COc1ccccc1CCNC(=O)CCCn1c(=O)c2cccn2c2cccnc21 | inactive: -5.72% |
| Cc1ccc2[nH]c(CSc3nnc(NC(=O)COc4ccc(F)cc4)s3)cc(=O)c2c1 | inactive: -11.8% |
| Cc1ccccc1C(=O)n1nc(-c2ccco2)nc1NCc1cccs1 | inactive: -27.8% |
| CCCN(CCC)CCNC(=O)c1nn(C)c2c1CS(=O)(=O)c1ccccc1-2 | inactive: -8.12% |
| CCOC(=O)c1c(C)oc2nc(C)nc(N3CCN(c4cccc(C(F)(F)F)c4)CC3)c12 | inactive: -7.42% |
| COc1ccc(C2CC(=O)N(CC(=O)Nc3ccc(C(C)=O)cc3)c3ccccc3S2)cc1OC (stereo not drawn) | inactive: -9.01% |
| O=C(NCC(c1ccc2c(c1)OCO2)N1CCN(c2ccccc2F)CC1)c1ccccc1F (stereo not drawn) | inactive: -14.9% |
| COc1ccc(CCC(=O)NC2CC(=O)N(c3ccccc3)C2)cc1 (stereo not drawn) | inactive: -18.6% |
| CCOC(=O)c1c(NC(=O)/C=C/c2ccc(Cl)cc2)sc2c1CCC(C)C2 (stereo not drawn) | inactive: -14.5% |
| COc1ccc(CNC(=O)c2cc(-c3ccc(Cl)cc3)n[nH]2)cc1 | inactive: -19.9% |
| O=C(CCCCn1c(=O)c2ccccc2n(Cc2cccc(Cl)c2)c1=O)NCc1ccc2c(c1)OCO2 | inactive: -6.61% |
| O=C(NCc1nc(-c2ccccc2)no1)c1ccco1 | inactive: -16.1% |
| COc1cc(Cl)c(C)cc1NC(=O)c1nn(C)c2c1CSc1ccccc1-2 | inactive: -8.07% |
| CCCn1c2ccccc2c2cnn(CC(=O)NCCCN(Cc3ccccc3)C(C)C)c(=O)c21 | inactive: -4.47% |
| CCCN(CCC)CCCNC(=O)c1cn(C)c2ccc(S(=O)(=O)N3CCOCC3)cc2c1=O | inactive: -8.44% |
| O=S(=O)(NCCc1csc2nc(-c3ccc(Cl)cc3)nn12)c1ccc2c(c1)OCCO2 | inactive: -16.6% |
| CCn1cc(C(=O)NCCc2ccccc2)c(=O)c2cc(S(=O)(=O)N3CCc4ccccc4C3)ccc21 | inactive: -12.8% |
| COc1ccc(Nc2cc(C(=O)NCCCN(C)C3CCCCC3)c3ccccc3n2)c(OC)c1 | inactive: -9.7% |
| COC(=O)c1ccc2c(=O)n(CCCCCC(=O)NCc3ccc(OC)cc3)c(=O)[nH]c2c1 | inactive: -18.4% |
| COc1ccc(-c2cc(C)no2)cc1S(=O)(=O)N1CCOc2ccc(Cl)cc21 | inactive: -8.32% |
| CC(C)c1ccc(NC(=O)CN2C(=O)COc3ccc(S(=O)(=O)N4CCOCC4)cc32)cc1 | inactive: -10.4% |
| COc1ccc(CCNc2nc(SCc3cccc(F)c3)nc3ccccc23)cc1OC | inactive: -7.42% |
| CCC(C)NC(=O)CN1C(=O)c2cccnc2Oc2ccc(C)cc21 (stereo not drawn) | inactive: -6.88% |
| CCc1cc2c(cc3c(=O)n(CC(=O)NCCc4ccccc4)ncn32)s1 | inactive: -5.78% |
